Laboratory results as given in patent US11407811B2, “Fusion protein, preparation method therefor and use thereof” (JIANGSU RONGTAI BIOTECH CO., LTD., priority 2017, dated 2022).
Marks after values point to notes of the source that are not given here.

B1: Protein I: IgG1-Fc linked to antiangiogenesis polypeptide EDSM-Y via a flexible linker; SEQ ID NO: 15 (protein)
chain: [sequence of human IgG1 Fc not given]GGGGSGGGGSGGGGSFQPVLHLVALNSPLSGGMRGIRGADFQCFQQARAVGLAGTFRAGGGGRGD
B2: Protein III: mIgG4-Fc linked to antiangiogenesis polypeptide EDSM-Y via a flexible linker; SEQ ID NO: 19 (protein)
chain: [sequence of human IgG4 Fc with S228P F234A L235A (EU numbers) and a few adjoining residues not given]GGGGSGGGGSGGGGSFQPVLHLVALNSPLSGGMRGIRGADFQCFQQARAVGLAGTFRAGGGGRGD

Experiments:
[1] = system: toe swelling in rat induced by carrageenan; test: Acute inflammation of toe swelling in rat induced by carrageenan; format: in vivo; conditions: for Swelling degree 1 h: 1 h after carrageenan; for Swelling degree 1 h / Swelling degree 3 h / Swelling degree 5 h / Swelling degree 7 h: rat foot; for Swelling degree 3 h: 3 h after carrageenan; for Swelling degree 5 h: 5 h after carrageenan; for Swelling degree 7 h: 7 h after carrageenan
Experimental: 80 SD rats were randomly divided into 8 groups with 10 mice for each group. […] The drug was administered once by injection, and the model group was given an equal volume of physiological saline and fed normally. On the third day, 0.1 mL of 1% carrageenan was injected subcutaneously into the right hind toes of the rats to induce inflammation. The foot volume was measured at 1 h, 3 h, 5 h, and 7 h after inflammation. The swelling degree of the foot was calculated according to the following formula: the swelling degree of the foot (mL)=the volume of the foot after inflammation—the volume before inflammation. The number of milliliters of spilled liquid was recorded (method: the protruding point of the right joint was circled with a ballpoint pen and used as a measurement mark, and the right hind feet of the rat were sequentially placed in the volume measuring device, so that the hind limbs were exposed outside the cylinder, and the depth of the immersion was limited to the overlap of the circle and the liquid level. After the foot entered the liquid, the liquid level was raised, and the volume of the spilled liquid was the volume of the right hind foot of the rat, and the normal volume of the right hind foot of each rat is sequentially determined).

[2] = system: retinal blood vessels in OIR mice; test: Retinal blood vessels in OIR mice; format: in vivo; conditions: dose 64 μg, injected into the vitreous body on day 13, evaluated on day 17
Excerpt: Establishment of the OIR model: young mice and their mothers were exposed to 75% hyperoxic environment from day 7 to day 12 after birth of C57/B16 mice so that capillaries in the central retina rapidly disappeared. On day 12, the mice were returned to indoor air and the retinal blood vessels exposed to hyperoxia rapidly disappeared, which caused extensive abnormal neovascularization, and the central part of the retina remained largely avascular for a long time. After the blood vessels disappeared completely, the fusion protein (administration group, the doses of fusion protein I, protein II, protein III, protein IV, and protein V were all 64 μg) or physiological saline (negative group) was injected into the vitreous body on day 13. Retinal vessels were evaluated on day 17 (labeled as unclosed vessels, […] of Texas Red-labeled tomato lectin was injected into the left ventricle and cycled for 5 minutes).

[3] = system: cervical cancer cell Hela; test: MTT assay, proliferation of cervical cancer cell Hela; format: cell-based
Experimental: The MTT assay was used to detect the inhibitory effect of the integrin blocker fusion protein obtained in Example 1 on the proliferation of various tumor cells, including melanoma cell B16F10, gastric cancer cell MGC-803, lung cancer cell A549, liver cancer cell Hep-G2, breast cancer cell MDA-MB-231, colon cancer cell HCT-116, human glioma U87, and cervical cancer cell Hela.
The tumor cells were cultured in a 5% CO2 incubator at 37° C. to a density of 90% or more, and collected by trypsinization. The cells were resuspended in the culture liquid and counted under a microscope. The cell concentration was adjusted to 3.0×10^4 cells/mL. The cell suspension was inoculated into a 96-well plate at 100 μL per well and cultured overnight in a 5% CO2 incubator at 37° C. […] After the cells were fully adhered, each dilution was added to a 96-well plate at 100 μL per well, respectively. […] 20 μL of 5 mg/mL MTT was added to each well of a 96-well plate, and incubation was continued for 4 hours. The medium was aspirated and 100 μL of DMSO per well were added to dissolve. The absorbance was measured at 570 nm with a microplate reader with a reference wavelength of 630 nm, and the proliferation inhibition (PI) was calculated. The formula is as follows: […]
where Ntest is the OD value of the test group and Ncontrol is the OD value of the blank control group.
The test was repeated 5 times independently. The results obtained from the test were calculated as mean±SD, and statistical t-test was performed. P<0.05 was considered as a significant difference, and P<0.01 was considered as an extremely significant difference.

[4] = system: choroidal blood flow in rabbit eyes; test: Choroidal blood flow in rabbit eyes (color microsphere technique); format: in vivo; conditions: 128 μg intravitreal injection; for Blood flow: rabbit eyes with high intraocular pressure; for choroidal blood flow: all observation time points
Experimental: New Zealand white rabbits with weight of 2.5-3.0 kg were randomly divided into […], which were labeled as a control group, and fusion protein I, protein II, protein III, protein IV, and protein V groups. White rabbits in each group were anesthetized with 35 mg/kg xylazine via intramuscular injection, and then anesthesia was maintained with half of the initial amount via intramuscular injection per hour. The intraocular pressure of the left eye was increased to 40 mmHg, under which the blood flow can be reduced to ⅓ of the normal value. The left ventricle was cannulated through right carotid artery for injection of microspheres (for the calculation of ocular blood flow), and the femoral artery was cannulated for blood collection. Each group was given physiological saline, 128 μg of fusion protein I, 128 μg of protein II, 128 μg of protein III, 128 μg of protein IV, and 128 μg of protein V via intravitreal injection. The ocular blood flow of rabbit eyes with high intraocular pressure was measured by a color microsphere technique at 0, 30, and 60 minutes after administration. At each time point, 0.2 mL (about 2 million) of microspheres were injected. Immediately after the microspheres were injected, blood was collected through the femoral artery for 60 seconds, and placed in a heparinized anticoagulant tube, and the amount of blood collected was recorded. After the last blood collection, the animals were sacrificed with 100 mg/kg phenobarbital via intravenous infusion. The eyeballs were removed, and the retina, choroid, iris and ciliary body were separated, and the tissue weight was recorded. The tissue blood flow at each time point was calculated with the following formula: Qm=(Cm×Qr)/Cr, where Qm represented tissue blood flow in μL/min/mg; Cm was the number of microspheres per milligram of tissue; Qr was blood flow in μL/min; and Cr was the number of blood microspheres as a reference.

Molecule | Swelling degree 1 h ([1]; 8 mg/kg) | Swelling degree 3 h ([1]; 8 mg/kg) | Swelling degree 5 h ([1]; 8 mg/kg) | Swelling degree 7 h ([1]; 8 mg/kg) | Swelling degree 1 h ([1]; 32 mg/kg) | Swelling degree 3 h ([1]; 32 mg/kg) | Swelling degree 5 h ([1]; 32 mg/kg) | Swelling degree 7 h ([1]; 32 mg/kg) | Swelling degree 1 h ([1]; 128 mg/kg) | Swelling degree 3 h ([1]; 128 mg/kg) | Swelling degree 5 h ([1]; 128 mg/kg) | Swelling degree 7 h ([1]; 128 mg/kg) | inhibition of toe swelling induced by carrageenan ([1]; high doses) | inhibition of toe swelling induced by carrageenan ([1]; low dose) | Area (mm^2) occupied by neovascular clusters [2] | Reduce (%) [2] | A570 nm/A630 nm ([3]; dose 1 μg/mL) | PI (%) ([3]; dose 1 μg/mL) | A570 nm/A630 nm ([3]; dose 2 μg/mL) | PI (%) ([3]; dose 2 μg/mL) | further results
B1 | 0.26 ± 0.15 mL | 0.33 ± 0.12 mL | 0.42 ± 0.14 mL | 0.36 ± 0.11 mL | 0.22 ± 0.19 mL | 0.35 ± 0.17 mL | 0.31 ± 0.15 mL | 0.37 ± 0.18 mL | 0.27 ± 0.12 mL | 0.38 ± 0.16 mL | 0.34 ± 0.14 mL | 0.43 ± 0.16 mL | could significantly inhibit toe swelling | not significant | 0.101 ± 0.036* mm^2 | 52.13% | 0.7882 ± 0.0412 | 1.38% | 0.7454 ± 0.0374 | 6.73% | Reduce (%) ([2]; listed as fusion protein I): 52.13%; A570 nm/A630 nm ([3]; dose 4 μg/mL): 0.6879 ± 0.0381; PI (%) ([3]; dose 4 μg/mL): 13.93%; A570 nm/A630 nm ([3]; dose 8 μg/mL): 0.6135 ± 0.0362; PI (%) ([3]; dose 8 μg/mL): 23.24%; A570 nm/A630 nm ([3]; dose 16 μg/mL): 0.5365 ± 0.0293; PI (%) ([3]; dose 16 μg/mL): 32.87%; A570 nm/A630 nm ([3]; dose 32 μg/mL): 0.4587 ± 0.0325; PI (%) ([3]; dose 32 μg/mL): 42.61%; A570 nm/A630 nm ([3]; dose 64 μg/mL): 0.3878 ± 0.0287; PI (%) ([3]; dose 64 μg/mL): 51.48%; A570 nm/A630 nm ([3]; dose 128 μg/mL): 0.2655 ± 0.0302; PI (%) ([3]; dose 128 μg/mL): 66.78%; A570 nm/A630 nm ([3]; dose 256 μg/mL): 0.1522 ± 0.0315; PI (%) ([3]; dose 256 μg/mL): 80.96%; Blood flow ([4]; 0 min after administration): 21.9 ± 2.3 µL/min/mg; Blood flow ([4]; 30 min after administration): 16.9 ± 3.1 µL/min/mg; Blood flow ([4]; 60 min after administration): 15.1 ± 1.6 µL/min/mg; choroidal blood flow [4]: significantly increased
B2 | 0.24 ± 0.04 mL | 0.37 ± 0.16 mL | 0.35 ± 0.07 mL | 0.41 ± 0.18 mL | 0.28 ± 0.17 mL | 0.31 ± 0.22 mL | 0.37 ± 0.14 mL | 0.39 ± 0.12 mL | 0.24 ± 0.12 mL | 0.36 ± 0.11 mL | 0.40 ± 0.10 mL | 0.43 ± 0.18 mL | could significantly inhibit toe swelling | not significant | 0.104 ± 0.041* mm^2 | 50.71% | 0.7806 ± 0.0400 | 2.33% | 0.7465 ± 0.0381 | 6.59% | Reduce (%) ([2]; listed as protein III): 50.71%; A570 nm/A630 nm ([3]; dose 4 μg/mL): 0.6888 ± 0.0374; PI (%) ([3]; dose 4 μg/mL): 13.81%; A570 nm/A630 nm ([3]; dose 8 μg/mL): 0.6254 ± 0.0342; PI (%) ([3]; dose 8 μg/mL): 21.75%; A570 nm/A630 nm ([3]; dose 16 μg/mL): 0.5478 ± 0.0279; PI (%) ([3]; dose 16 μg/mL): 31.46%; A570 nm/A630 nm ([3]; dose 32 μg/mL): 0.4825 ± 0.0263; PI (%) ([3]; dose 32 μg/mL): 39.63%; A570 nm/A630 nm ([3]; dose 64 μg/mL): 0.4121 ± 0.0199; PI (%) ([3]; dose 64 μg/mL): 48.44%; PI (%) ([3]; dose 64 μg/mL, listed as protein III): about 45%; A570 nm/A630 nm ([3]; dose 128 μg/mL): 0.3022 ± 0.0242; PI (%) ([3]; dose 128 μg/mL): 62.19%; A570 nm/A630 nm ([3]; dose 256 μg/mL): 0.1879 ± 0.0228; PI (%) ([3]; dose 256 μg/mL): 76.49%; Blood flow ([4]; 0 min after administration): 22.1 ± 2.2 µL/min/mg; Blood flow ([4]; 30 min after administration): 17.1 ± 2.9 µL/min/mg; Blood flow ([4]; 60 min after administration): 14.9 ± 1.5 µL/min/mg; choroidal blood flow [4]: significantly increased
